The results in this text go back to patent US11542275B2, “Substituted imidazolidin-2-one derivatives as PRMT5 inhibitors” (Aurigene Discovery Technologies Limited, priority 2018, dated 2023).

What is called GI50 is the concentration at which growth is held to half of that of the control. Higher therefore signals lower sensitivity of the cells.

The test system of the assay is Z138 cells. Kind of assay: Z138 cell proliferation assay (XTT). The format is cell-based. Particulars: Homo sapiens, Z-138, 168 h, 7 day treatment, 9-point dose response starting with 10 μM, XTT read at 465 nm. The procedure:
Z138 cells were seeded in a 96-well round-bottom plate and treated with varying concentration of compound. The final DMSO concentration was maintained at 0.05%. The selected compounds of present invention were screened in a 9-point dose response format starting with 10 μM and 1/3rd serial dilution. On the 4th day, cells were spun down and media was replaced while maintaining the initial compound concentration in each well. At the end of the 7th day, cells were spun down and media was aspirated. 50 µL of XTT containing media was added to the wells. The plates were read using the M3 spectrophotometer at 465 nm. GI50 values were calculated by fitting the dose response data to sigmoidal curve fitting equation using GraphPad Prism software V7.
The compounds were screened in the above mentioned assay procedures for determining IC50 and GI50 values in inhibiting PRMT5.
For orientation: Formazan colour is commonly taken as a measure of viable cells.

The compound `O=C1N(Cc2ccc(N3CCOCC3)cn2)CCN1C[C@H](O)CN1CCc2ccccc2C1` [Compound 4, (R)-1-(3-(3,4-dihydroisoquinolin-2(1H)-yl)-2-hydroxypropyl)-3-((5-morpholinopyridin-2-yl)methyl)imidazolidin-2-one] registered a GI50 of 100 to 300 nM. The figure for `N#CC1CCN(c2cnc(CN3CCN(C[C@H](O)CN4CCc5ccccc5C4)C3=O)cn2)CC1` [Compound 10, (R)-1-(5-((3-(3-(3,4-dihydroisoquinolin-2(1H)-yl)-2-hydroxypropyl)-2-oxoimidazolidin-1-yl)methyl)pyrazin-2-yl)piperidine-4-carbonitrile] is 100 to 300 nM; for `CN(C)S(=O)(=O)C1CCN(c2ccc(CN3CCN(C[C@H](O)CN4CCc5ccccc5C4)C3=O)nc2)CC1` [Compound 15, (R)-1-(6-((3-(3-(3,4-dihydroisoquinolin-2(1H)-yl)-2-hydroxypropyl)-2-oxoimidazolidin-1-yl)methyl)pyridin-3-yl)-N,N-dimethylpiperidine-4-sulfonamide] it is 100 to 300 nM.

Compound `CC(=O)N1CCN(c2ccc(CN3CCN(C[C@H](O)CN4CCc5ccccc5C4)C3=O)nc2)C(C)C1` (stereo partly drawn) [Compound 21, 1-((5-(4-acetyl-2-methylpiperazin-1-yl)pyridin-2-yl)methyl)-3-((R)-3-(3,4-dihydroisoquinolin-2(1H)-yl)-2-hydroxypropyl)imidazolidin-2-one] had a GI50 of 100 to 300 nM. The figure for `CC(=O)N1CCC(c2cnc(CN3CCN(C[C@H](O)CN4CCc5ccccc5C4)C3=O)cn2)CC1` [Compound 34, (R)-1-((5-(1-acetylpiperidin-4-yl)pyrazin-2-yl)methyl)-3-(3-(3,4-dihydroisoquinolin-2(1H)-yl)-2-hydroxypropyl)imidazolidin-2-one] is less than 100 nM; for `CCC(=O)N1CCC(c2ccc(CN3CCN(C[C@H](O)CN4CCc5ccccc5C4)C3=O)nc2)CC1` [Compound 44, (R)-1-(3-(3,4-dihydroisoquinolin-2(1H)-yl)-2-hydroxypropyl)-3-((5-(1-propionylpiperidin-4-yl)pyridin-2-yl)methyl)imidazolidin-2-one] it is less than 100 nM. The figure for `CC(=O)N1CCC(c2ccc(CN3CCN(C[C@@H](O)CN4CCc5ccccc5C4)C3=O)nc2)CC1` [Compound 45, (S)-1-((5-(1-acetylpiperidin-4-yl)pyridin-2-yl)methyl)-3-(3-(3,4-dihydroisoquinolin-2(1H)-yl)-2-hydroxypropyl)imidazolidin-2-one] is 100 to 300 nM. For `CN1CCC(c2ccc(CN3CCN(C[C@H](O)CN4CCc5ccccc5C4)C3=O)nc2)CC1` [Compound 47, (R)-1-(3-(3,4-dihydroisoquinolin-2(1H)-yl)-2-hydroxypropyl)-3-((5-(1-methylpiperidin-4-yl)pyridin-2-yl)methyl)imidazolidin-2-one] the value was 100 to 300 nM; for `O=C1N(Cc2ccc(C3CCOCC3)nn2)CCN1C[C@H](O)CN1CCc2ccccc2C1` [Compound 51, (R)-1-(3-(3,4-dihydroisoquinolin-2(1H)-yl)-2-hydroxypropyl)-3-((6-(tetrahydro-2H-pyran-4-yl)pyridazin-3-yl)methyl)imidazolidin-2-one], 100 to 300 nM; for `CC1(C(=O)N2CCC(c3ccc(CN4CCN(C[C@H](O)CN5CCc6ccccc6C5)C4=O)nc3)CC2)COC1` [Compound 53, (R)-1-(3-(3,4-dihydroisoquinolin-2(1H)-yl)-2-hydroxypropyl)-3-((5-(1-(3-methyloxetane-3-carbonyl)piperidin-4-yl)pyridin-2-yl)methyl)imidazolidin-2-one], less than 100 nM. `N#Cc1ncc(-c2ccnc(CN3CCN(C[C@H](O)CN4CCc5ccccc5C4)C3=O)c2)cn1` [Compound 54, (R)-5-(2-((3-(3-(3,4-dihydroisoquinolin-2(1H)-yl)-2-hydroxypropyl)-2-oxoimidazolidin-1-yl)methyl)pyridin-4-yl)pyrimidine-2-carbonitrile] showed a GI50 of more than 300 nM.

Compound `N#Cc1ncc(-c2cccc(CN3CCN(C[C@H](O)CN4CCc5ccccc5C4)C3=O)n2)cn1` [Compound 55, (R)-5-(6-((3-(3-(3,4-dihydroisoquinolin-2(1H)-yl)-2-hydroxypropyl)-2-oxoimidazolidin-1-yl)methyl)pyridin-2-yl)pyrimidine-2-carbonitrile] registered a GI50 of 100 to 300 nM. The compound `O=C1N(Cc2ccc(-c3ccnc(O)c3)cn2)CCN1C[C@H](O)CN1CCc2ccccc2C1` [Compound 56, (R)-1-(3-(3,4-dihydroisoquinolin-2(1H)-yl)-2-hydroxypropyl)-3-((2′-hydroxy-[3,4′-bipyridin]-6-yl)methyl)imidazolidin-2-one] displayed a GI50 of less than 100 nM.

`COc1ccc(-c2ccc(CN3CCN(C[C@H](O)CN4CCc5ccccc5C4)C3=O)nc2)cn1` [Compound 62, (R)-1-(3-(3,4-dihydroisoquinolin-2(1H)-yl)-2-hydroxypropyl)-3-((6′-methoxy-[3,3′-bipyridin]-6-yl)methyl)imidazolidin-2-one] registered a GI50 of less than 100 nM. For `O=C1N(Cc2ccc(C3CC4CCC(C3)O4)nc2)CCN1C[C@H](O)CN1CCc2ccccc2C1` (stereo partly drawn) [Compound 74, 1-((6-(8-oxabicyclo[3.2.1]octan-3-yl)pyridin-3-yl)methyl)-3-((R)-3-(3,4-dihydroisoquinolin-2(1H)-yl)-2-hydroxypropyl)imidazolidin-2-one] the value was less than 100 nM.

`CC(=O)N1CC(c2ccc(CN3CCN(C[C@H](O)CN4CCc5ccccc5C4)C3=O)nc2)C1` [Compound 79, (R)-1-((5-(1-acetylazetidin-3-yl)pyridin-2-yl)methyl)-3-(3-(3,4-dihydroisoquinolin-2(1H)-yl)-2-hydroxypropyl)imidazolidin-2-one] registered a GI50 of less than 100 nM.

For `CC(=O)N1CCN(c2ccc(CN3CCN(CC(O)CN4Cc5ccccc5C4)C3=O)nc2)CC1` (centres unmarked) [Compound 84, 1-((5-(4-acetylpiperazin-1-yl)pyridin-2-yl)methyl)-3-(2-hydroxy-3-(isoindolin-2-yl)propyl)imidazolidin-2-one], the GI50 was more than 300 nM.

`O=C1N(Cc2ccc(C3CCOCC3)cn2)CCN1C[C@H](O)CNC1Cc2ccccc2C1` [Compound 89, (R)-1-(3-((2,3-dihydro-1H-inden-2-yl)amino)-2-hydroxypropyl)-3-((5-(tetrahydro-2H-pyran-4-yl)pyridin-2-yl)methyl)imidazolidin-2-one] showed a GI50 of 100 to 300 nM. Compound `CN(C)C(=O)C1CCN(c2ccc(CN3CCN(C[C@H](O)CN4CCc5ccccc5C4)C3=O)nc2)CC1` [Compound 97, (R)-1-(6-((3-(3-(3,4-dihydroisoquinolin-2(1H)-yl)-2-hydroxypropyl)-2-oxoimidazolidin-1-yl)methyl)pyridin-3-yl)-N,N-dimethylpiperidine-4-carboxamide] returned a GI50 of less than 100 nM.

Compound `O=C1N(Cc2ccc(C3CCN(Cc4nn[nH]n4)CC3)cn2)CCN1C[C@H](O)CN1CCc2ccccc2C1` [Compound 99, (R)-1-((5-(1-((2H-tetrazol-5-yl)methyl)piperidin-4-yl)pyridin-2-yl)methyl)-3-(3-(3,4-dihydroisoquinolin-2(1H)-yl)-2-hydroxypropyl)imidazolidin-2-one] came in with a GI50 of more than 300 nM.
